For assay [1], the system named is BaF3 cells expressing the double mutant FGFR3 S249C+V557L. As to the kind of experiment: BaF3 cell viability, FGFR3 S249C+V557L. The assay is classed as cell-based. The settings on record: 72 hours, FGF1/heparin. The text has this: cDNA expressing FGFR3 mutants (S249C, S248C, Y375C, V555M, V555L, S249C+V555M, or S249C+V555L) were synthesized and cloned into pLVX Lenti-viral vector (Thermo Fisher). Viral particles were generated by lipofectamine transfection of LentiX 293T cells using Lenti-X packaging single shots following manufacturer's protocol (Clontech/Takara) and concentrated using Lenti-X concentrator and titer determined using Lenti-X p24 rapid titer kit (Clontech/Takara). BaF3 cells were transduced with virus at ~0.3 MOI.
For cell proliferation assays, engineered BaF3/hFGFR3 cells grown in complete medium were washed and plated in IL-3-free culture media±5 μg/ml heparin and 1 nM human FGF1. Cells were plated out at 1×10^5 cells/well into 96-well plates, followed by the addition of 1:3 serially diluted antibodies as indicated in figures. After addition of antibodies, cells were incubated at 37° C. for 72 h followed by the addition of CellTiter-Glo™ (Promega) reagent. The luminescent signal was detected by Envision plate reader (PerkinElmer). Data was analyzed using Prism software (GraphPad). […]

Assay [2] has as its system BaF3 cells expressing S248C hFGFR3b. As to the kind of experiment: BaF3 cell viability, S248C hFGFR3b. The assay is classed as cell-based. The settings on record: 1 nM FGF1 and 5 ug/ml heparin. The text has this:
cDNA expressing FGFR3 mutants (S249C, S248C, Y375C, V555M, V555L, S249C+V555M, or S249C+V555L) were synthesized and cloned into pLVX Lenti-viral vector (Thermo Fisher). Viral particles were generated by lipofectamine transfection of LentiX 293T cells using Lenti-X packaging single shots following manufacturer's protocol (Clontech/Takara) and concentrated using Lenti-X concentrator and titer determined using Lenti-X p24 rapid titer kit (Clontech/Takara). BaF3 cells were transduced with virus at ~0.3 MOI. Expression of FGFR3 receptors was confirmed by FACS analysis and western blot.
For cell proliferation assays, engineered BaF3/hFGFR3 cells grown in complete medium were washed and plated in IL-3-free culture media±5 μg/ml heparin and 1 nM human FGF1. Cells were plated out at 1×10^5 cells/well into 96-well plates, followed by the addition of 1:3 serially diluted antibodies as indicated in figures. After addition of antibodies, cells were incubated at 37° C. for 72 h followed by the addition of CellTiter-Glo™ (Promega) reagent. The luminescent signal was detected by Envision plate reader (PerkinElmer). Data was analyzed using Prism software (GraphPad).
Next, cell viability was assessed using BaF3 cells expressing S248C hFGFR3b, cultured in a medium with 1 nM FGF1 and 5 μg/ml heparin in the absence (control) or presence of mAb063 or BiP063N2 as described in Section 8.1.4.

For another assay, the target named is T1, FGFR3 (Homo sapiens, UniProt P22607, S249C).
T1 construct: UMUC14 cells, which endogenously express the FGFR3 S249C mutation; host or cells: UMUC14
T1 sequence (P22607 23-808 isoform P22607-2 S249C limits assumed): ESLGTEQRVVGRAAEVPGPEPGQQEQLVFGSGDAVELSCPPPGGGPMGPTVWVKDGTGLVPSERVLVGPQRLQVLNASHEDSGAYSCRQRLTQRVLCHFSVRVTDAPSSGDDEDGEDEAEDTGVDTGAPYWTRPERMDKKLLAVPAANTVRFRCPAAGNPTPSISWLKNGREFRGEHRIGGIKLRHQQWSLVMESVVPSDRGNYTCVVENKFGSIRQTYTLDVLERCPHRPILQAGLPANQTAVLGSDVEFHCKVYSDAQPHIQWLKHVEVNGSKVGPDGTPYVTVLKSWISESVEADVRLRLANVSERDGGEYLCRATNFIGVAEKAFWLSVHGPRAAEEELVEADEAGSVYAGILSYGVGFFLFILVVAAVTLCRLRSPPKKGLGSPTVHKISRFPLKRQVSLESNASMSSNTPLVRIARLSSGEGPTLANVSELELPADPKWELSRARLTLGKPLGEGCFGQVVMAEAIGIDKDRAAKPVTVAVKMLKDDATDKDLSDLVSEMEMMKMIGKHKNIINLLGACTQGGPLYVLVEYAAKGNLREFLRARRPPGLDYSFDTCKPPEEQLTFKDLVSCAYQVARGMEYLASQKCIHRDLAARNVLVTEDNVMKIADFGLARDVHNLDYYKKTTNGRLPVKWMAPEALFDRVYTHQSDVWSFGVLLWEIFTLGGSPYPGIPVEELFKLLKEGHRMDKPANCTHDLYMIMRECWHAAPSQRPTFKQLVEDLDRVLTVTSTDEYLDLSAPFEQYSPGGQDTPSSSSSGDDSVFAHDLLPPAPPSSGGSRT
As to the kind of experiment: Western blot, FGFR3 receptor degradation in UMUC14 cells. The assay is classed as cell-based. The settings on record: 33 nM, 16 hrs. As for the experimental part:
For receptor degradation assessments, cells were treated with 33 nM of a designated antibody for 16 hours. Cells were then washed with pre-chilled PBS and collected in lysis buffer containing protease inhibitors (Cell Signaling Technology). Equal amounts of cell lysate were loaded on either reducing or non-reducing SDS-PAGE for protein separation. PVDF membranes with transferred proteins were blocked in tris-buffered saline (TBS) containing 5% nonfat dry milk and 0.5% Tween 20 and incubated overnight with anti-FGFR3 primary antibody (Santa Cruz). Membranes were washed three times with TBST, incubated with HRP-conjugated goat anti-rabbit secondary antibody (Seracare), and developed with SuperSignal West chemiluminescent substrate (Thermo Scientific). Images were captured with a C300 imager (Azure Biosystems).
To assess the effect of antibody on receptor degradation, UMUC14 cells were treated with indicated antibodies at 33 nM for 16 hrs. Total FGFR3 receptor levels were analyzed by western blot.
(In western blotting, separated proteins are transferred to a membrane and probed.)

The test system of assay [3] is LU-0813 tumors (patient-derived lung squamous cell carcinoma, FGFR3 S249C). Briefly: In vivo tumor growth inhibition, LU-0813 PDX model. Set-up: species or system mice. The settings on record: mAb063 10 mg/kg, BiP063N2 13.3 mg/kg twice per week; compared with erdafitinib 25 mg/kg daily oral. As for the experimental part:
Next, the ability of BiP063N2 to inhibit the growth of a patient-derived lung squamous cell carcinoma model LU-0813 was assessed.

In the next assay the target is T2, human FGFR3c (hFGFR3c) (Homo sapiens, UniProt P22607).
T2 construct: biotinylated human or mouse FGFR3b-ecto.mmH, human FGFR3c-ecto.mmH or Fel-d 1.mmH; mmh (C)
T2 sequence (P22607 23-375 limits assumed): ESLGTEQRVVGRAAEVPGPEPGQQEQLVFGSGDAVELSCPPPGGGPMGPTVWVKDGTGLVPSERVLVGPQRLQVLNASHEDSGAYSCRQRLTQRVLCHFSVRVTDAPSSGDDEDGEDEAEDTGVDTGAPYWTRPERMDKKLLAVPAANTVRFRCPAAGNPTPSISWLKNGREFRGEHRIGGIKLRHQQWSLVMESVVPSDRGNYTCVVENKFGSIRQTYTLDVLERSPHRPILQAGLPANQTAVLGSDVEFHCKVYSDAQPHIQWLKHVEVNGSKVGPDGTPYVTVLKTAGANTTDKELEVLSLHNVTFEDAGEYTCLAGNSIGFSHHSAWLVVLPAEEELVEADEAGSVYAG
As to the kind of experiment: Biacore binding to human FGFR3c. The settings on record: 25 C. As for the experimental part: Affinity and mechanism of action of binding of anti-FGFR3 antibodies to FGFR3 isoforms were determined by Biacore analysis. In brief, in-house generated monoclonal anti-human Fc antibody was immobilized on the surface of a CM-5 sensor chip. Different concentrations of FGFR3 antibodies were injected at 50 μL/min for 4 min and the assay was performed at 25° C. The mAb binding response was monitored and, for low affinity receptors, steady-state binding equilibrium was calculated. Kinetic association (ka) and dissociation (kd) rate constants were determined by processing and fitting the data to a 1:1 binding model using Scrubber 2.0 curve fitting software. Binding dissociation equilibrium constants (KD) and dissociative half-lives (t1/2) were calculated from the kinetic rate constants using the formula: KD (M)=kd/ka; and t1/2 (min)=(ln2/(60*kd). Some KD values were derived using the steady state equilibrium dissociation constant; When no KD values could be derived, it was marked as NB (no binding observed) or IC (inconclusive affinity determination due to low specific RU signal).
A general note: Surface plasmon resonance follows binding to a sensor surface in real time, without labels.

B1: mAb063: parental anti-FGFR3 antibody of BiP063N2, inhibitory; anchor mAb (antibody)
heavy: QVQLQESGPGLVKPSETLSLTCTVSGDSINSYFWSWIRQLPGKELEWIGHIYSSGSTRYNPSLQSRVTISIDTSKNQFSLKLSSVTAADTAVYYCARGASAVDYWGQGTLVTVSSASTKGPSVFPLAPCSRSTSESTAALGCLVKDYFPEPVTVSWNSGALTSGVHTFPAVLQSSGLYSLSSVVTVPSSSLGTKTYTCNVDHKPSNTKVDKRV[human IgG4 Fc with S228P (EU numbers) cut from this listing]
light: EIVLTQSPGTLSLSPGERATLSCRTSQSISSGYLAWYQQKPGQAPRLLIYGASRRATGIPDRFSGSGSGTDFTLTISRLEPEDFVVYYCQQYGSSPYTFGQGTKLEIKRTVAAPSVFIFPPSDEQLKSGTASVVCLLNNFYPREAKVQWKVDNALQSGNSQESVTEQDSKDSTYSLSSTLTLSKADYEKHKVYACEVTHQGLSSPVTKSFNRGEC
For the molecule B1, in assay [1], the “growth of BaF3 cells expressing FGFR3 S249C+V557L” value is recorded as “robustly inhibited the growth”. For the same molecule, the “cell viability of BaF3 cells expressing S248C hFGFR3b” value in assay [2] is reported as “diminished cell viability in a dose-dependent manner”. The FGFR3 receptor degradation result with FGFR3 is recorded as “did not induce receptor degradation”. Further, the LU-0813 tumor growth entry in assay [3] is “strongly inhibited tumor growth”. The “binding to monomeric human FGFR3c” value in the assay with human FGFR3c (hFGFR3c) is reported as “not detected”.

The record behind these values is patent US20260217837A1, “FGFR3 BINDING MOLECULES AND METHODS OF USE THEREOF” (Regeneron Pharmaceuticals, Inc., priority 2023, published 2026).
